# Changes are numbered by the printed parent chain. The list shows a part of the results.
# T1: UNK ZnF1-6 (called full-length) (human, UniProt Q9C0B0 30-357)
# T1 sequence: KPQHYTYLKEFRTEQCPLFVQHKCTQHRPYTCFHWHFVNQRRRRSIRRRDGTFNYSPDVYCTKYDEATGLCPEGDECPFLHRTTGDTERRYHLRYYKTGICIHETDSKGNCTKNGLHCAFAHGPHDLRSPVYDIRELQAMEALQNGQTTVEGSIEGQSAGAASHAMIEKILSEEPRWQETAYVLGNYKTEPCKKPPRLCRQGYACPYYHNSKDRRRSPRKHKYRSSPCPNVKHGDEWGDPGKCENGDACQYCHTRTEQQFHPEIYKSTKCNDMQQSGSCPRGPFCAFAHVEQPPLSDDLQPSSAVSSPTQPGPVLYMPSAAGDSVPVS
# B1: ENSG00000070961:be:win_4651|3pUTR|ENSG00000070961|bound_else_gene|NA|bound_elsewhere_windowed (ssRNA)
# RNA: GGGAGUUCUACAGUCCGACGAUCACAUGUUAGUUUAGUGAUGUCUUGGUGAACUGUGAGUGAACUGUAUUGAUUUUUCUAAUCUUUAGAGACCUUCACACAGCAUGAGGGCUGUUGGCAUUUUGAAAAAGGUUAAUAAGUAGACAACAGAGGAUUGAGCAUCA
# B2: chr18:9283235:9283336:+|3pUTR|ENSG00000101745|msi1|FALSE|bound_elsewhere (ssRNA)
# RNA: GGGAGUUCUACAGUCCGACGAUCCUGAUGGUUCAACCAGAGGUCUGGGAAAUAGCACUGUUGGCCCAAACAGAACAGGCUUUUAGAAGAUAAAAGCGACAAGAAGGAAUCUGGUGAAUUUUAGUCAUCCCAGCUUUUUAGUCUCAACAGAGGAUUGAGCAUCA
# B3: ENSG00000198589:be:win_8601|3pUTR|ENSG00000198589|bound_else_gene|NA|bound_elsewhere_windowed (ssRNA)
# RNA: GGGAGUUCUACAGUCCGACGAUCAAGUACCUGGAGCAUCAUUCUCUUCUACCACAUCUGAAUGUAACUUAAAUUUGCUCAAAGAAGCAAAAUAUUUUUUAAAGUUAUUAAUAAUUGCUAUUUUUGUAGUCUUUGCUUGACUUUCAACAGAGGAUUGAGCAUCA
# B4: chr6:110632029:110632161:-|CDS|ENSG00000155111|control|control|control (ssRNA)
# RNA: GGGAGUUCUACAGUCCGACGAUCCAUGGGUUUUGCCAGAUUAUUCAAUUCUCCUCUAAAGCCACUAGCAGAUUUGGAUCCAGUAGUUGUGACAUUUUGGUAUCGGGCUCCAGAACUUUUGCUUGGUGCAAGGCAUUAUACAAACAACAGAGGAUUGAGCAUCA
# B5: chr2:121605696:121605828:-|CDS|ENSG00000074054|unk|total|mutant (ssRNA)
# RNA: GGGAGUUCUACAGUCCGACGAUCGACCGACUAUUUCUCAGACAAACAGAAGUCUGCUGACCUUGAGCAUGACCAGACCAUGUCCGAUAAACUUGUGGAUGGACUUGCUACCUCUUGGGUGAACUCCCGCAAUUACAAGGUAAGCAACAGAGGAUUGAGCAUCA
# B6: chrX:71101288:71101389:+|CDS|ENSG00000184481|unk|FALSE|unique (ssRNA)
# RNA: GGGAGUUCUACAGUCCGACGAUCGGAGGCCCUGCUCACCUCUGAUACGCCACCACCCCCUGCUGACGUCCUCAUGACCCAGGUAGAUCCCAUUCUGUCCCAGGCUCCGACUCUUCUGUUGCUGGGGGGGCUUCCUUCCUCCAGCAACAGAGGAUUGAGCAUCA
# B7: ENSG00000136451:be:win_1551|CDS_3pUTR|ENSG00000136451|bound_else_gene|NA|bound_elsewhere_windowed (ssRNA)
# RNA: GGGAGUUCUACAGUCCGACGAUCAUCACCGCCUUGGUAAACAGUAUUAUAAAAUCAAAAUAUGGGUAAAAGUAAAUAUUUACCAGCAACUUAACUUUUAGUUGAUUAAAGCAAAAAGUAAACCAUGAAAUUGGGAGAUUUUAUCAACAGAGGAUUGAGCAUCA
# B8: chr2:148946928:148947042:+|CDS|ENSG00000168280|unk|FALSE|bound_elsewhere (ssRNA)
# RNA: GGGAGUUCUACAGUCCGACGAUCGAAUGAACACAGCUCUAGAAGUCACAGUAUCUUCCUGAUAAAUAUUAAACAAGAGAAUGUAGAGACUGAAAAAAAACUCAGUGGGAAACUUUAUUUGGUUGAUUUGGCUGGGAGCGAAAACAACAGAGGAUUGAGCAUCA
# B9: chr22:40826605:40826706:-|CDS|ENSG00000100380|unk|FALSE|bound_elsewhere (ssRNA)
# RNA: GGGAGUUCUACAGUCCGACGAUCCACCAAAUUACAGGUCUAAAUAAGAGAUGGAAUUUAGGAUAAUAAACUUACUGACCCAGUAGGACACUUUUUAAAUACUAAUGAACCCUUUCUUUUCAGGAUCCAGAAGUUAUGGUGGCUCAACAGAGGAUUGAGCAUCA
# B10: chr4:138169334:138169435:-|3pUTR|ENSG00000151012|msi1|total|mutant (ssRNA)
# RNA: GGGAGUUCUACAGUCCGACGAUCCCAUUUCACGCAGAAAAAAAGUCAGCCAGUAAUUAAGAAAAAAAGUGAUGGAGAUUAAGCCGUAUUUUGGCUUAUUUUCCGGACUCAUCAUGAGAAGACACAGUUCCUUUAAUCAGGAAACAACAGAGGAUUGAGCAUCA
# B11: ENSG00000111670:stop:overlap|stop_codon|ENSG00000111670|stop_codon|NA|stop_codon (ssRNA)
# RNA: GGGAGUUCUACAGUCCGACGAUCGGAAGAUAUUUCCCAGAAGGAGGAUACACAAAGAAGCUAGUCCCAAUCGAAUCAGAGUAUAGAAGAUCUUCAUUUGAAAACCAUCUACCUCAGCAUUUACUGAGCAUUUUAAAACUCAGCCAACAGAGGAUUGAGCAUCA
# B12: ENSG00000198589:be:win_7851|CDS|ENSG00000198589|bound_else_gene|NA|bound_elsewhere_windowed (ssRNA)
# RNA: GGGAGUUCUACAGUCCGACGAUCAAGAUUGAUCCAAGUGGUGUUUGGCCAUUGGGAUGUCGUCACUUGCCUUGCUCGUUCUGAGUCAUAUAUUGGGGGAAAUUGCUACAUUCUCUCAGGGUCACGUGAUGCAACUCUUUUGCUCAACAGAGGAUUGAGCAUCA
# B13: chr1:228407934:228408200:-|three_prime_utr|ENSG00000162931|control|control|control (ssRNA)
# RNA: GGGAGUUCUACAGUCCGACGAUCGGCCUUCUGCUUACUGCAGGCCACCUGCCAGGGUUCUCUGGCAUCACGCUGGCAGCCAUUAGACACACAGGGGGGUUUCUCAAAUUCUAAAUAUAAUUGUGAUUAGAACUGUCAAACAUUCAACAGAGGAUUGAGCAUCA
# B14: chr22:40826605:40826706:-|CDS|ENSG00000100380|unk|total|mutant (ssRNA)
# RNA: B9 RNA with U58C, A59C, U83C, A84C
# B15: chr10:37949572:37952126:-|three_prime_utr|ENSG00000175395|control|control|control (ssRNA)
# RNA: GGGAGUUCUACAGUCCGACGAUCUAAUCCUUCAAAACAAUCAGAUAAUUCACACAAGAGGUACACCUUAUGAAUCGCAUCAAUAGAGGGAAAUUUUCAGCUACAAUCUUUGCUCUCUCUGUGUAUCAGCAAAUACAUAGAGAGCAACAGAGGAUUGAGCAUCA
# B16: chr4:100187679:100188167:-|CDS|ENSG00000145358|control|control|control (ssRNA)
# RNA: GGGAGUUCUACAGUCCGACGAUCACACUUGUGUUUAAGCAGGAGAACUGCUCAUGGACUAGCUUCAGGGACUUUUUCUUUAGUAGAGGUCGCUUCUCCUCUGGUUUCAGGAGAACUCUGAUCCUCAGCUCAGGAUUUCGACUUCAACAGAGGAUUGAGCAUCA
# B17: chr15:59031169:59031386:+|CDS|ENSG00000157450|unk|FALSE|unique (ssRNA)
# RNA: GGGAGUUCUACAGUCCGACGAUCACACCAAGUGAUGAAGAUAAUGAUUCCUCUUUUAGUGAUUGUCUUUCUUCUCCUUCAUCUAGUCUGCAUUUUGGAGAUUCUGAUACUGUGACUUCAGAUGAGGAUAAAGAAGUCUCUGUACAACAGAGGAUUGAGCAUCA
# B18: chr1:215620365:215620495:+|CDS|ENSG00000136636|unk|total|mutant (ssRNA)
# RNA: GGGAGUUCUACAGUCCGACGAUCGGUUUUUCAGAAUCCAAGAAAAGGUCAUCAGAAGAUGAAAAUGAAAAUAAAACCGAGUUCCGGAAGAAAGGAGGAUUUGAAGGGGGAGGAUUCCUUGGAAGAAAGAAAGUUCCCUAUCUGCAACAGAGGAUUGAGCAUCA
# B19: chr12:14497711:14497812:+|CDS|ENSG00000171681|unk|total|mutant (ssRNA)
# RNA: GGGAGUUCUACAGUCCGACGAUCACAGCGUCUGCCCCCAGAAGCUGCCAGCACAUCUCUGCCUCAGAAGCCACACUUGAAGUCCGCACGCGUUCAGAGUCAAAAUGGCACCGUACUGUCAUGGAGUGUCCUGGAGGUGGAUCGCAACAGAGGAUUGAGCAUCA
# B20: chr13:113500007:113500108:+|CDS|ENSG00000150403|unk|FALSE|unique (ssRNA)
# RNA: GGGAGUUCUACAGUCCGACGAUCGAAGAGGCCAAUUCUAAGCAAAAUAUAACAAAACGAGAAGUGGAGGAUGACUUGGGUCUUAGCAUGCUGAUUGACUCCCAGAACAACCAGUAUAUUUUGACCAAGCCCAGAGAUUCAACCCAACAGAGGAUUGAGCAUCA
# B21: chr7:13894654:13894755:-|3pUTR|ENSG00000006468|msi1|FALSE|unique (ssRNA)
# RNA: GGGAGUUCUACAGUCCGACGAUCUAUUCUCUUUCAUGCUGAAUUUACUAUGACCAUUUAUAAGCAGUGCAGUUAACUACAGAUAGCAUUUCAGGACAAAAUAGAUGACUCAAACCAUUUAUUGCUUAAAAAAUAGCUUACGCCCAACAGAGGAUUGAGCAUCA
# B22: chr6:122458524:122458701:-|CDS|ENSG00000111897|unk|FALSE|unique (ssRNA)
# RNA: GGGAGUUCUACAGUCCGACGAUCGGAAGUGCCCCGUGUUUGCUAUGCCGAUGCUGUCCUAGUGGAAACAACUCCACUGUAACUAGAUUGAUCUAUGCACUUUUCUUGCUUGUUGGAGUAUGUGUAGCUUGUGUAAUGUUGAUACAACAGAGGAUUGAGCAUCA
# Biological target: T1, UNK ZnF1-6 (called full-length)
# Experiment: nsRBNS (natural sequence RNA bind-n-seq); RBNS binding buffer (assumed for nsRBNS): 25 mM Tris pH 7.5, 150 mM KCl, 3 mM MgCl2, 0.01% Triton X-100, 500 ug/ml BSA, 20 U/ml SUPERase-In, 4 C; UNK is unkempt and MSI1 is Musashi-1; names of the RNAs are library labels; protein concentration not given here; high values mean tight binding
row,Binder,binding signal
1,B1,1.36 enrichment R
2,B2,0.774 enrichment R
3,B3,0.767 enrichment R
4,B4,0.618 enrichment R
5,B5,0.761 enrichment R
6,B6,0.705 enrichment R
7,B7,0.46 enrichment R
8,B8,0.471 enrichment R
9,B9,0.607 enrichment R
10,B10,0.35 enrichment R
11,B11,1.06 enrichment R
12,B12,0.376 enrichment R
13,B13,0.937 enrichment R
14,B14,0.405 enrichment R
15,B15,0.375 enrichment R
16,B16,0.554 enrichment R
17,B17,0.51 enrichment R
18,B18,0.698 enrichment R
19,B19,0.64 enrichment R
20,B20,0.624 enrichment R
21,B21,0.593 enrichment R
22,B22,0.713 enrichment R

# From publication PMC12136788
